Measured values taken from the supplement of paper PMC9334596.
Values joined by “and” are separate entries in the source; they are usually repeats but may differ in a detail not shown here. Equal entries are not always repeated. The full ranking holds about 5,300 compounds; the median of “PER2::LUC luminescence relative to vehicle control” is about 0.96, and the highest 2% start at about 1.3. This is one part of the list.

System: mPer2Luc MEF
Experiment: PER2::LUC luminescence relative to vehicle control (fold of vehicle); higher = higher PER2::LUC reporter signal
Settings: 10 µM
Summary of the method: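 The value is PER2::LUC luminescence expressed as fold of vehicle control. Mouse embryonic fibroblasts carrying the mPer2Luc reporter were seeded at ~3000 cells per well in 384-well plates and grown in DMEM with 10% FBS at 37 °C and 5% CO2. Compounds from commercial libraries were added at 10 μM 48 h after seeding, and luminescence was read with the ONE-Glo luciferase assay system 24 h and 30 h after treatment, followed by an alamarBlue viability assay.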

Row | SMILES | PER2::LUC luminescence (time after treatment 24 h) | PER2::LUC luminescence (time after treatment 30 h)
1 | CC[C@@]1(O)C(=O)OCc2c1cc1n(c2=O)Cc2cc3cc(O)ccc3nc2-1 | 0.836 | 0.79
2 | CC[C@H](C)n1cc(C)c2c(C(=O)NCc3c(C)cc(C)[nH]c3=O)cc(-c3ccc(N4CCNCC4)nc3)cc21 | 0.703 | 0.74
3 | Cc1cccc(-c2[nH]c(C(C)(C)C)nc2-c2ccc3nccnc3c2)n1 | 0.697 | 0.533
4 | CC(C)[C@@H]1CC[C@@H](C)C[C@H]1O | 0.98 and 0.904 | 0.976 and 1.26
5 | CN1CCN(CCCNc2ncc(Cl)c(-c3cc4c(C(=O)NC5CC5)cccc4s3)n2)CC1 | 0.98 | 1
6 | COc1ccc(CCN(C)CCc2ccc(OC)c(OC)c2)cc1OC | 1.12 | 1.26
7 | CC[N+](CC)(CC)CC | 1.16 | 1.01
8 | O=c1cc(-c2cc(O)c(O)c(O)c2)oc2cc(O)cc(O)c12 | 0.957 | 0.941
9 | C[C@@H](c1ncncc1F)[C@](O)(Cn1cncn1)c1ccc(F)cc1F | 1.05 | 1.19
10 | Cc1c(NC(=O)c2ccc(C(C)(C)C)cc2)cccc1-c1cn(C)c(=O)c(Nc2ccc(C(=O)N3CCOCC3)cc2)n1 | 0.756 | 0.914
11 | O=C(O)Cc1ccccc1Nc1c(Cl)cccc1Cl | 0.939 and 0.907 and 1.1 | 1.13 and 1.15
12 | O=C(Nc1cc(Cl)cc(Cl)c1O)c1c(O)c(Cl)cc(Cl)c1Cl | 0.983 | 0.775
13 | COc1cccc(OC)c1-c1ccc(C[C@H](NC(=O)c2c(Cl)cccc2Cl)C(=O)O)cc1 | 1 | 1.03
14 | C[C@@H]1CC(=O)NN=C1c1ccc(NN=C(C#N)C#N)cc1 | 1.08 | 1.06
15 | N#Cc1cc(-c2ccnc(Nc3ccc(N4CCOCC4)cc3)n2)ccc1OC1CCOCC1 | 0.507 | 0.584
16 | C[C@@H]1O[C@@H](Oc2c(-c3ccc(O)c(O)c3)oc3cc(O)cc(O)c3c2=O)[C@H](O)[C@H](O)[C@H]1O | 1.09 | 0.994
17 | CCCCCCCC/C=C\CCCCCCCC(=O)NCc1ccc(O)c(OC)c1 | 1.01 | 0.751
18 | N=c1ccn2c(n1)O[C@H]1[C@H](O)[C@@H](CO)O[C@H]12 | 0.726 and 0.575 | 0.891 and 0.419
19 | CC(=O)Oc1c(C)cccc1C(=O)O | 1.01 and 0.641 | 0.886 and 0.782
20 | C[N+](C)(C)CCO.[Br-] | 1 | 1.08
21 | CNC(=O)c1ccc2cc([C@@]3(O)CCn4cncc43)ccc2c1 | 1.06 and 1.12 | 0.938 and 1.12

Row | SMILES | PER2::LUC luminescence (time after treatment 24 h) | PER2::LUC luminescence (time after treatment 30 h)
22 | CC(=O)Oc1cc(C(F)(F)F)ccc1C(=O)O | 1.03 | 1.18
23 | Cc1cncc(CN2CCC(=C3c4ccc(Cl)cc4CCc4cccnc43)CC2)c1 | 0.855 | 0.812
24 | CS(=O)(=O)c1ccc([C@@H](O)[C@@H](CO)NC(=O)C(Cl)Cl)cc1 | 0.601 | 0.654
25 | Cc1ccn(-c2cc(Cl)ccc2[C@@H](Oc2cc(-c3ccc(C[C@H](N)C(=O)O)cc3)nc(N)n2)C(F)(F)F)n1 | 0.974 | 0.92
26 | CC(C)Cc1ccc([C@H](C)C(=O)O)cc1 | 1.12 and 0.978 and 0.993 | 0.959 and 1 and 0.971
27 | COc1cc(N(C)CCN(C)C)c(N)cc1Nc1nccc(-c2cn(C)c3ccccc23)n1 | 0.57 | 0.54
28 | CNC(=O)c1ccccc1Oc1nc(Nc2cc(OC)c(OC)c(OC)c2)ncc1Br | 0.749 | 0.702
29 | C[C@]12C=CC(=O)C=C1CC[C@@H]1[C@@H]2[C@@H](O)C[C@@]2(C)[C@H]1CC[C@]2(O)C(=O)CO | 0.815 | 1.07
30 | O=c1ncn2nc(Sc3ccc(F)cc3F)ccc2c1-c1c(Cl)cccc1Cl | 0.809 | 0.843
31 | CCOc1cc(NC(C)=O)ccc1C(=O)OC | 0.945 | 0.923
32 | O=C(O)c1cc(=O)c2cccc(O)c2[nH]1 | 1 | 0.938
33 | O=c1[nH]cc(F)c(=O)[nH]1 | 0.774 and 0.807 | 0.923 and 0.683
34 | Cc1cc(OC(=O)c2c(C)cc(O)cc2O)cc(O)c1C(=O)O | 1.01 | 0.963
35 | CCN(CC)CCOC(=O)C1(c2ccc([N+](=O)[O-])cc2)CCCC1 | 0.896 | 0.951
36 | N[C@@H](CCC(=O)O)C(=O)O | 1.06 | 1.08
37 | CCC(=O)O[C@H](CC(=O)O)C[N+](C)(C)C | 0.957 and 1.02 | 0.869 and 1.27
38 | Clc1ccccc1CN1CCc2sccc2C1 | 0.982 and 0.91 | 1.01 and 0.829
39 | COC(=O)N1CCN(Cc2cccc(NC(=O)Nc3ccc(C)nc3)c2F)CC1 | 0.996 and 0.835 | 1 and 1.06
40 | C[C@H](CCC(=O)NCC(=O)O)[C@H]1CC[C@H]2[C@@H]3CC[C@@H]4C[C@H](O)CC[C@]4(C)[C@H]3C[C@H](O)[C@]12C | 0.955 | 0.954
41 | O=C1CCC(c2ccccc2)(C2CCN(Cc3ccc(I)cc3)CC2)C(=O)N1 (stereo not drawn) | 0.782 | 0.705
42 | CN(C)CCCN1c2ccccc2CCc2ccc(Cl)cc21 | 0.389 | 0.797

Row | SMILES | PER2::LUC luminescence (time after treatment 24 h) | PER2::LUC luminescence (time after treatment 30 h)
43 | CO[C@@]1(NC(=O)C2SC(=C(C(N)=O)C(=O)O)S2)C(=O)N2C(C(=O)O)=C(CSc3nnnn3C)CS[C@@H]21 (stereo partly drawn) | 1.02 | 0.915
44 | Cc1cc(NC(=O)C2=C(O)c3ccccc3S(=O)(=O)N2C)no1 | 1.05 | 1.09
45 | Nc1nccc(-c2c(-c3ccc(F)cc3)ncn2C2CCCCC2)n1 | 0.789 | 0.827
46 | c1cc(-c2sc(-c3ccncc3)c(-c3ccncc3)c2-c2ccncc2)ccn1 | 1.3 | 1.16
47 | O=C1NC(=O)/C(=C\c2ccc3nccnc3c2)S1 | 1.2 | 1.23
48 | Cc1cc(C(C)(C)CC(C)(C)C)ccc1OCCOCC[N+](C)(C)Cc1ccccc1 | 0.19 | 0.246
49 | COC(=O)C1=C(C)NC(C)=C(C(=O)OC)C1c1ccccc1[N+](=O)[O-] | 0.944 | 1.02
50 | NC(=O)c1cccc2[nH]c(-c3ccc(C4CCCN4)cc3F)nc12 (stereo not drawn) | 1.01 | 1.22
51 | COc1cc2c(cc1O)CC[C@@H]1[C@@H]2CC[C@]2(C)[C@@H](O)CC[C@@H]12 | 1.02 and 0.523 | 0.96 and 0.593
52 | CNC(=O)[C@H]1O[C@@H](n2cnc3c(NCc4ccc(N)cc4)ncnc32)[C@H](O)[C@@H]1O | 0.987 | 0.982
53 | CC[C@H](C)[C@@H]([C@@H](CC(=O)N1CCC[C@H]1[C@H](OC)[C@@H](C)C(=O)N[C@@H](Cc1ccccc1)c1nccs1)OC)N(C)C(=O)[C@@H](NC(=O)[C@@H](NC)C(C)C)C(C)C | 0.338 | 0.385
54 | O=c1c(O)c(-c2ccccc2)oc2ccccc12 | 1.08 | 1.05
55 | C=CCc1cc(OC)c(O)c(C(=O)NCCO)c1 | 1 | 1.04
56 | CO[C@@]1(NC(=O)C(C(=O)O)c2ccc(O)cc2)C(=O)N2C(C(=O)O)=C(CSc3nnnn3C)CO[C@@H]21 (stereo partly drawn) | 0.946 | 0.923
57 | COc1cc2c(CCNC(C)=O)c[nH]c2cc1O | 0.926 | 0.815
58 | O=C1CC[C@@H](C(=O)O)N1 | 1.02 and 0.9 | 0.995 and 0.97
59 | CCOc1cn(-c2ccc(F)cc2C)nc1C(=O)Nc1ccc(Oc2ccnc3cc(OC)c(OC)cc23)c(F)c1 | 0.715 | 0.524
60 | C#C[C@]1(O)CC[C@H]2[C@@H]3CCC4=CC(=O)CC[C@@H]4[C@H]3CC[C@@]21C | 1.14 | 1.02
61 | O=C(O[C@H]1[C@H](Oc2ccccc2COC(=O)C2(O)C=CCCC2=O)O[C@H](CO)[C@@H](O)[C@@H]1O)c1ccccc1 (stereo partly drawn) | 0.824 | 0.676
62 | Oc1cc(-c2nc(-c3ccccc3)[nH]c2-c2ccncc2)ccc1Cl | 0.619 | 0.781
63 | CC(C)[C@H](C(=O)Nc1ccc(C(=O)NO)cc1)c1ccccc1 | 0.495 and 0.405 | 0.477 and 0.4

Row | SMILES | PER2::LUC luminescence (time after treatment 24 h) | PER2::LUC luminescence (time after treatment 30 h)
64 | C#C[C@]1(OC(C)=O)CC[C@H]2[C@@H]3CCC4=C[C@@H](OC(C)=O)CC[C@@H]4[C@H]3CC[C@@]21C | 1 | 0.99
65 | Nc1ccc(S(=O)(=O)Nc2ncccn2)cc1 | 1.02 | 1.02
66 | CCCC(C)NC(=O)c1ccc(Cl)c(Cl)c1 (stereo not drawn) | 1.04 | 0.973
67 | O=C1/C(=C/c2cc(Br)c(O)c(Br)c2)COC/C1=C\c1cc(Br)c(O)c(Br)c1 | 0.259 | 0.258
68 | CNC1CCC(N(Cc2cccc(-c3ccncc3)c2)C(=O)c2sc3ccccc3c2Cl)CC1 (stereo not drawn) | 0.456 | 0.486
69 | C[C@@H]1CC[C@@]2(OC1)O[C@H]1C[C@H]3[C@@H]4CC[C@H]5C[C@@H](O)CC[C@]5(C)[C@H]4CC[C@]3(C)[C@H]1[C@@H]2C | 0.932 | 0.927
70 | COc1ccnc(C[S+]([O-])c2nc3cc(-n4cccc4)ccc3[nH]2)c1C (stereo not drawn) | 1.07 | 1.05
71 | NC(=O)c1ccc2nc(-c3ccc(Oc4ccc(Cl)cc4)cc3)[nH]c2c1 | 1.29 | 1.16
72 | Nc1ncnc2c1ncn2C1OC(C(=O)NC2CC2)C(O)C1O (stereo not drawn) | 1.19 | 1.03
73 | NS(=O)(=O)c1ccc(C(=O)O)cc1 | 0.746 | 1.06
74 | O=[N+]([O-])c1cc(C(F)(F)F)cc([N+](=O)[O-])c1NNC(=S)Nc1ccc(F)cc1 | 0.67 | 0.671
75 | COc1cc2ncnc(Nc3ccc(Cl)cc3F)c2cc1OC | 0.75 | 0.764
76 | CCN(C/C=C/C#CC(C)(C)C)Cc1cccc(OCc2cc(-c3ccsc3)cs2)c1 | 1.21 | 1.12
77 | Cc1ccc(C(=O)NCCCCCC(=O)Nc2ccccc2N)cc1 | 0.71 | 0.746
78 | N#Cc1ccc2[nH]c(O)c(-c3ccc(CN4CCOCC4)cn3)c2c1 | 0.875 | 0.624
79 | CC(=O)O[C@@H]1C[C@@]2(C)C(CC[C@@H]2C(C)=O)C2CCC3=CC(=O)CC[C@]3(C)C21 (stereo partly drawn) | 1.05 | 0.991
80 | CNc1cc(NS(=O)(=O)c2ccc(N)cc2)nc(NC)n1 | 0.947 | 0.884
81 | CCOc1ccccc1C(N)=O | 1.03 and 0.951 | 0.986 and 0.793
82 | COC(=O)C[C@H]1C(C)(C)[C@@H](OC(C)=O)[C@@H]2CC3=C4CC(=O)O[C@@H](c5ccoc5)[C@]4(C)CC[C@@H]3[C@@]1(C)C2=O | 0.853 | 0.862
83 | Cc1cccc(CCN2CCC(C(=O)c3ccc(NS(C)(=O)=O)cc3)CC2)n1 | 1.02 | 1.04
84 | CO[C@H]1C[C@@H]2CC[C@@H](C)[C@@](O)(O2)C(=O)C(=O)N2CCCC[C@H]2C(=O)O[C@H]([C@H](C)C[C@@H]2CC[C@@H](O)[C@H](OC)C2)CC(=O)[C@H](C)/C=C(\C)[C@@H](O)[C@@H](OC)C(=O)[C@H](C)C[C@H](C)/C=C/C=C/C=C/1C | 0.312 and 0.179 | 0.496 and 0.383
